In PubChem BioAssay AID1346428 (National Center for Advancing Translational Sciences (NCATS), 2018) one finds activation data, which are given here for 23 molecules.

In all, about 48,000 compounds went through this assay and about 1,200 (2.5%) were called active. Not shown: some 2% with an inconclusive outcome.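 The calls were made as follows: active = activation of at least 60% and not above a set upper limit (about 1 call in 100 departs from these limits); inconclusive = activation of 40% to 60%, or above that upper limit; inactive = activation under 40%.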 The list shows a part of the results.

Sequence of UniProt O75388 (O75388 whole entry, looked up): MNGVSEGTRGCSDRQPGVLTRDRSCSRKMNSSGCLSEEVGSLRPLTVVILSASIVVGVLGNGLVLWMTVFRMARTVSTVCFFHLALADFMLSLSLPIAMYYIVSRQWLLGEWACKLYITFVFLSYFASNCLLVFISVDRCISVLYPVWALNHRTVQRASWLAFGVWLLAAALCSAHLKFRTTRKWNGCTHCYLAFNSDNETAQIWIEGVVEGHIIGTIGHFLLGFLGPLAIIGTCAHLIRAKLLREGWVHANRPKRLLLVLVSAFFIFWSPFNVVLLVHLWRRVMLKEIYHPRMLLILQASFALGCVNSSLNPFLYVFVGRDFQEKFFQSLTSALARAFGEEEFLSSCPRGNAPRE

This test concerns the target Probable G-protein coupled receptor 32 (Homo sapiens) (UniProt O75388). Nature of the test: qHTS for Agonists of Human Resolvin D1 Receptor DRV1. Also: 0% is about no effect. The settings on record: CHO-K1 GPR32 beta-arrestin PathHunter luminescence, 90 min; at 76.9 µM; active compounds read high; zero percent set by DMSO-only wells. The method, boiled down:
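Beta-arrestin recruitment read-out: luminescence from complemented beta-Gal in CHO-K1 GPR32 PathHunter cells, measured 1 h after detection reagent at ambient temperature following 90 min compound exposure at 37 °C; DMSO served as basal (EC0) control.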
For the molecule `Cc1ccc(Nc2nnc(-c3cc4c(ccc5ccccc54)oc3=O)s2)cc1`, the activation was inactive: 0.479%.
As for `COc1cccc(CNC(=O)CCCN2C(=O)CCn3nc(-c4cccn4C)cc32)c1`, the activation was inactive: -11.1%.
With `CCOc1ccc(CCNC(=O)c2csc3c2CCCCC3)cc1`, the activation was inactive: 3.74%.
Then `CCn1c(=O)c2cc(C(=O)N(CC(C)C)CC(C)C)sc2c2ccccc21`, with inactive: -7.3%; and `CCOC(=O)c1cccc(NC(=O)Cn2c(=O)nc(-c3ccccc3F)c3cc(Cl)ccc32)c1`, with inactive: -15.5%; and `Cc1ccc(CNc2ncnc3c2nc2n3CCCC2)cc1`, with inactive: 3.93%.
For `CCOC(=O)c1ccc(NC(=O)CN2c3ccccc3S(=O)(=O)c3ccccc32)cc1` the value was inactive: -8.95%.
In the case of `CCOC(=O)c1cc(-c2ccccc2)n(CCC(=O)NC2CCCCC2)c1C`, the activation was inactive: -18.9%.
With `Cc1ccc2nc(CSc3nnc(NC(=O)c4cccc(Br)c4)s3)cc(=O)n2c1`, the activation is inactive: 1.86%.
Consider `CCN(C(=O)CSc1nc2ccccc2n1CC(=O)NCc1ccc(OC)cc1)c1ccccc1`, for which the activation was inactive: -3.67%.
Regarding `CCc1ccc(-n2c(-c3ccccc3)c(C)n3c4c(=O)n(C)c(=O)n(C)c4nc23)cc1`, the activation was inactive: -8.98%.
Turning to `COc1cccc(N2C(=O)N(CC(=O)NCc3cccc(OC)c3OC)c3ccccc3S2(=O)=O)c1`, the activation was inactive: -0.608%.
As to `Cc1ccc2cccc(NC(=O)c3ccc(-c4ccc(Br)cc4)o3)c2n1`, the activation was inactive: 0.332%.
Then `Cc1cc(=O)c2cc(C(=O)Nc3ccccc3)ccc2[nH]1`, with inactive: 1.8%; and `CCc1ccccc1Nc1ncnc2c1nc1n2CCCC1`, with inactive: -11.9%.
Take `COc1cccc(C2C(C(=O)Nc3ccccc3OC)=C(C)Nc3nc4ccccc4n32)c1` (stereo not drawn): the activation is inactive: 20%.
As to `NS(=O)(=O)c1ccc(CCNC(=O)c2nc(SCc3ccccc3F)ncc2Cl)cc1`, the activation was active: 82.6%.
Consider `O=C(CSc1nnc(CNC(=O)c2ccccc2)n1-c1cccc(Cl)c1)Nc1ccccc1F`, for which the activation is inactive: -17.5%.
On to `COc1ccc2oc(=O)c(C(=O)NCCc3c(C)[nH]c4ccc(Br)cc34)cc2c1`, for which the activation is inactive: -5.18%.
Regarding `CC(=O)O[C@H]1C[C@@H]2CC[C@@H]3[C@H](CC[C@@]4(C)[C@H]3C[C@H]([N+]3(C)CCCCC3)[C@@H]4OC(C)=O)[C@@]2(C)C[C@@H]1N1CCCCC1`, the activation is inactive: 10.1%.
`O=C(Nc1ccc(F)cc1)c1cccn1-c1nnc(N2CCCCC2)s1`: the activation was inactive: -27.5%.
With `CCOC(=O)c1c(C)oc2nc(C)nc(N3CCN(c4ccccc4)CC3)c12`, the activation was inactive: -12.2%.
As for `COc1ccccc1N1CCN(C(=O)CCS(=O)(=O)c2cc(Br)cc3c2N(C(=O)C2CC2)CC3)CC1`, the activation is inactive: -4.74%.
